{
  "source": "paper PMC10632493",
  "experiment_in_all_cases": "co-IP; TNKS1/2 DKO HEK293T cells cotransfected with TNKS1 (or MycSAMPARP) and Flag plasmids; TNE lysate; anti-Flag beads 2 h at 4 °C; immunoblot",
  "key": {"Flag-tagged DTX4": {"molecular_target": "T1, Flag-tagged DTX4 (UniProt Q9Y2E6)", "T1 sequence": "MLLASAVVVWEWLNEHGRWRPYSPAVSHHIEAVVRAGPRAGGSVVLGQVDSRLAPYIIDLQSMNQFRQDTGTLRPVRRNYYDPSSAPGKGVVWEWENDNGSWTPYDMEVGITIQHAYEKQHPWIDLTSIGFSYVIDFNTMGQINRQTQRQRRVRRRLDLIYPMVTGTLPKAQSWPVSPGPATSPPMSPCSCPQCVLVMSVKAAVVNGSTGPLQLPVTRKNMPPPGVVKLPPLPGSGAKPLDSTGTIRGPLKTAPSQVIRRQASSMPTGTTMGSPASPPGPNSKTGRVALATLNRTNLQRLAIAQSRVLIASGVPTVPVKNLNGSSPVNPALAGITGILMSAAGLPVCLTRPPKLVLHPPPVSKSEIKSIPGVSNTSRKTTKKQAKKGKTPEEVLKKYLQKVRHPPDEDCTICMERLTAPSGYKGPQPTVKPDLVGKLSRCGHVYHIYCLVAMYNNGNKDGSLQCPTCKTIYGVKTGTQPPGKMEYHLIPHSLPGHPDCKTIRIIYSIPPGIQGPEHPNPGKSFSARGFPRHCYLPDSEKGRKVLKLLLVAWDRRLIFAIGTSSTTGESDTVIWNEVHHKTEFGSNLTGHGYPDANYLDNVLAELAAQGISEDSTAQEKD"}, "[1]": {"molecular_target": "FlagRNF166 Di19 mutant D2* (C182G) (UniProt Q96A37)"}, "[2]": {"molecular_target": "FlagRNF166 Di19 mutant D1* (C152R) (UniProt Q96A37)"}, "[3]": {"molecular_target": "FlagRNF166 RING mutant (C33S/C36S; R**) (UniProt Q96A37)"}, "tagged HUWE1 (FlagHUWE1)": {"molecular_target": "tagged HUWE1 (FlagHUWE1) (UniProt Q7Z6Z7)"}, "Flag-tagged RNF138": {"molecular_target": "T2, Flag-tagged RNF138 (UniProt Q8WVD3)", "T2 sequence": "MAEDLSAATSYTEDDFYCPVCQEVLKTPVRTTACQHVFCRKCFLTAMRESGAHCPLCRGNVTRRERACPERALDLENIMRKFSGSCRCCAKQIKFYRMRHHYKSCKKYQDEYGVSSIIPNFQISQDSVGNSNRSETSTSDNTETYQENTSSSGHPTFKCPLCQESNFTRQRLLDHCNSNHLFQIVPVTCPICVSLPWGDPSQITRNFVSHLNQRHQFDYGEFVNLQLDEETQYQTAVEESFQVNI"}, "Flag-tagged DTX2": {"molecular_target": "T3, Flag-tagged DTX2 (UniProt Q86UW9)", "T3 sequence": "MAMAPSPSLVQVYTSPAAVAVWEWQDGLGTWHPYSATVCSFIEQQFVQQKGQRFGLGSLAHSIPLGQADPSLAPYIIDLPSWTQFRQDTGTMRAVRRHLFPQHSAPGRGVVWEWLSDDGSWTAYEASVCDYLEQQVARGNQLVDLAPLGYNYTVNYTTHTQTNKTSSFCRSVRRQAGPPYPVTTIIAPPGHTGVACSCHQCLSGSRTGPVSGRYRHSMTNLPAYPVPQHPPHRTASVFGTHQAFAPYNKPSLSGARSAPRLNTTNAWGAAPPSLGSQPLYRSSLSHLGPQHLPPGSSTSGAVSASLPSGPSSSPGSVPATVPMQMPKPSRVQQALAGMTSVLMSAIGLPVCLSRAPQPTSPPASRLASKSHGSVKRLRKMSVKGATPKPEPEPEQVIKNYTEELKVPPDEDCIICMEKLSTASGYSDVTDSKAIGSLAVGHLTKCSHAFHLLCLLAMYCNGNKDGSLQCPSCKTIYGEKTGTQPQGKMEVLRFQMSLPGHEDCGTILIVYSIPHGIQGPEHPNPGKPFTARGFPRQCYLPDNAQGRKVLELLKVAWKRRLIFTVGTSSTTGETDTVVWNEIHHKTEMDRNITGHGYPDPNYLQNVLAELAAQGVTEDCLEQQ"}, "[4]": {"molecular_target": "Flag-tagged RNF146 (FlagRNF146) (UniProt Q9NTX7)"}},
  "note": "No constants are given. Whether binding was seen depends on the method and setting. In cells and extracts the contact can be indirect. Some entries that bind do so weakly or less than the wild type. For some assays here: Where a sequence is shown, tags or fusion partners need not be part of it.",
  "data": [
    {"substance": "TNKS1 (transfected, TNKS.WT) (from UniProt O95271 1-1327) (enzyme)", "values": [
      {"measurement": "binding", "setting": "Flag-tagged DTX4", "result": "binds"},
      {"measurement": "binding", "setting": "[1]", "result": "no binding"},
      {"measurement": "binding", "setting": "[2]", "result": "no binding"},
      {"measurement": "binding", "setting": "[3]", "result": "binds"},
      {"measurement": "binding", "setting": "tagged HUWE1 (FlagHUWE1)", "result": "binds"},
      {"measurement": "binding", "setting": "Flag-tagged RNF138", "result": "binds"},
      {"measurement": "binding", "setting": "Flag-tagged DTX2", "result": "binds"},
      {"measurement": "binding", "setting": "[4]", "result": "binds"}
    ]}
  ]
}
